From patent US20130203078

Biological target: T1, human native unmodified procaspase-3 (huCasp3) (UniProt P42574)
T1 sequence: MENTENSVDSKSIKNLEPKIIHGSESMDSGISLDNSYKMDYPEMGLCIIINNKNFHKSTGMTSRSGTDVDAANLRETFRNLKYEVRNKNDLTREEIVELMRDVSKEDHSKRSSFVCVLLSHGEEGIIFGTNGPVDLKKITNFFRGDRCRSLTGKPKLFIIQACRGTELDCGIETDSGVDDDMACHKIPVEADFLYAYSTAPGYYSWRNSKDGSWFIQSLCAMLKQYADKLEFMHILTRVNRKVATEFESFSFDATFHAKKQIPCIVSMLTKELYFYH

## human granzyme B secreted by stably transfected RBL-2H3 cells (letters omitted)
  Fluorescence of caspase-3 treated with granzyme B (DEVD-AMC substrate): 43500 fluorescence
